About 5,800 (2.1%) of roughly 270,000 compounds were called active. The shares of active, inactive and inconclusive entries below differ from those in the screen. Calls follow the shape of the dose curve; as a rule, active = well fitted inhibition curve with a large enough effect; inconclusive = small, poorly fitted or top-dose-only effect; inactive = flat fitted curve, though single readings scatter. Potencies beside an inconclusive call are fits to weak or partial responses and may not hold up.
What follows are compounds tested against Microtubule-associated protein tau (Homo sapiens) (UniProt P10636) (assay: qHTS for Inhibitors of Tau Fibril Formation, Thioflavin T Binding). Conditions: recombinant tau K18 P301L, heparin-induced fibrillization, ThT fluorescence; series mostly up to 57.4 µM.
UniProt P10636, sequence (P10636 whole entry, looked up): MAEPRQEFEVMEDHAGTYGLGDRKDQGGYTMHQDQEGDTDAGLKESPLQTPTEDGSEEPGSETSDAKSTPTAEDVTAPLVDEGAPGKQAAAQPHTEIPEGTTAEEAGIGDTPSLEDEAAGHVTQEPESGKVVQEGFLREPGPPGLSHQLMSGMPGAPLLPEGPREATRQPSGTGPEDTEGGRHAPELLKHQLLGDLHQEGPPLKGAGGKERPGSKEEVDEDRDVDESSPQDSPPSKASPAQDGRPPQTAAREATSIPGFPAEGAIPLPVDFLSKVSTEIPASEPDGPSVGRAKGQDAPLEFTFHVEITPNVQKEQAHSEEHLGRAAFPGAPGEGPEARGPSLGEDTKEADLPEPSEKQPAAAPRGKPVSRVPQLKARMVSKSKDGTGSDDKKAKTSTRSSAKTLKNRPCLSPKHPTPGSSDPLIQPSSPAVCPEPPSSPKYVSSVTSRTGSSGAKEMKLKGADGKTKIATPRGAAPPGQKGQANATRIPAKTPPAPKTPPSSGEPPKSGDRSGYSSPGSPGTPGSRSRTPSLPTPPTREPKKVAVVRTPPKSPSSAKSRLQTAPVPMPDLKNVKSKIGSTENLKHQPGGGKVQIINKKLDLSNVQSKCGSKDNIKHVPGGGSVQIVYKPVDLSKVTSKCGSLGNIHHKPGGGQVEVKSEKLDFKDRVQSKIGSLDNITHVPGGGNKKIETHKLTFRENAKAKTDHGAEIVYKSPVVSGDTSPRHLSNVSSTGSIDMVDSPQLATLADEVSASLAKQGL
Summary of the method: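 Using a mix of unlabeled (15 uM) and Alexa 594-labeled (0.24 uM) tau K18 P301L, heparin-triggered fibrillization over 6 hr at 37 C was scored by ThT fluorescence.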
With O=[N+]([O-])c1cc(-c2cnc3ccccc3n2)ccc1Oc1ccc(Cl)cc1 the Potency was inconclusive: 7.94 µM [inhibitor, partial curve]. With NC(=S)N=Nc1c(O)[nH]c2ccc(F)cc12 the Potency was inconclusive: 14.1 µM [inhibitor, partial curve]. For CC(C)c1ccc(/C=C(\C#N)c2nc(-c3cc4ccccc4oc3=O)cs2)cc1, the Potency was inconclusive: 0.708 µM [inhibitor, full curve, poor fit]. Cc1nc2ccc(NC(=O)Cc3ccc4c(c3)OCCO4)cc2s1 was tested, and the Potency was inconclusive: 14.1 µM [inhibitor, single point]. With Cc1ccc(NC(=S)N(CCN(C)C)C(C)c2cccnc2)cc1 (stereo not drawn) the Potency was “inactive”. With CCOC(=O)c1ccc(NC(=S)NC(=O)COc2ccccc2)cc1 the Potency was inconclusive: 0.708 µM [inhibitor, full curve]. In the case of N#Cc1c(N)c(C#N)c(-c2ccc(O)cc2)c2c1CCCC2, the Potency is reported as “inactive”. COc1ccc(C(=O)Nc2ccc3c(c2)OCCO3)cc1[N+](=O)[O-] was tested, and the Potency was inconclusive: 2.24 µM [inhibitor, full curve, poor fit]. With CC1CCN(S(=O)(=O)c2ccc3nc(Nc4cccc(C(F)(F)F)c4)ccc3c2)CC1 the Potency was inconclusive: 22.4 µM [activator, partial curve, poor fit]. N/C(=N\OC(=O)c1ccc(Cl)c(Cl)c1)c1cccnc1 was tested, and the Potency was inconclusive: 6.31 µM [inhibitor, partial curve]. For COc1cccc(-c2nc(SCC(=O)NC3CCCC3)c(-c3ccc(F)cc3)[nH]2)c1, the Potency was inconclusive: 10 µM [inhibitor, partial curve, poor fit]. For CCc1ccc(NC(=O)COCc2cc(-c3ccc(F)cc3)on2)cc1, the Potency was inconclusive: 35.5 µM [inhibitor, single point]. In the case of Cc1ccc(C(=O)N(c2ccccc2)C2CC(C)N(C(=O)c3ccco3)c3ccccc32)cc1 (stereo not drawn), the Potency is reported as inconclusive: 39.8 µM [inhibitor, single point]. For Nc1c(-c2ccccc2)cnn1-c1cccc([N+](=O)[O-])c1, the Potency was inconclusive: 25.1 µM [inhibitor, partial curve]. Cc1cc(C)cc(NC(=O)c2ncn(-c3ccccc3)n2)c1 was tested, and the Potency was inconclusive: 28.2 µM [inhibitor, partial curve]. In the case of COC(=O)[C@@]1(Cc2ccc(F)cc2)[C@H]2c3cc(C(=O)N(C)C)n(CCCNc4ccc(C(F)(F)F)cc4Cl)c3C[C@H]2CN1C(=O)c1ccccc1, the Potency is reported as “inactive”. For CCOC(=O)/C(C#N)=C1/C=C(C)NC(c2ccccc2O)=N1, the Potency was inconclusive: 31.6 µM [inhibitor, single point]. With O=C1c2[nH]nc(-c3ccccc3O)c2C(c2ccc(Cl)cc2)N1CCc1ccccc1 (stereo not drawn) the Potency was inconclusive: 35.5 µM [inhibitor, single point]. With CCOc1ccccc1Nc1ncnc2c1c(-c1ccccc1)cn2-c1ccc(OC)cc1 the Potency was “inactive”. With O=C(Nc1ccc(N2CCN(C(=O)c3ccco3)CC2)cc1)c1cccs1 the Potency was inconclusive: 4.47 µM [inhibitor, partial curve]. For COc1ccc(-c2ccc(CCC(=O)O)n2NC(=O)c2cccs2)cc1, the Potency was inconclusive: 17.8 µM [inhibitor, single point]. In the case of O=C(COc1ccc(F)c(Cl)c1)c1ccc[nH]1, the Potency is reported as inconclusive: 11.2 µM [inhibitor, partial curve]. With COc1ccc(NC(C)C(=O)N/N=C/c2ccc([N+](=O)[O-])s2)cc1 (stereo not drawn) the Potency was inconclusive: 12.6 µM [inhibitor, partial curve]. With COc1cc2nc(SCC(=O)Nc3cccc(C)c3)n3nc(CCn4c(C)nc5ccccc54)nc3c2cc1OC the Potency was inconclusive: 20 µM [inhibitor, single point]. For CNC(=O)c1ccc(-c2ccc(OC)cc2)s1, the Potency was inconclusive: 14.1 µM [inhibitor, partial curve]. O=C(/C=C/c1ccc(Cl)c([N+](=O)[O-])c1)Nc1ccc(NC(=O)c2ccco2)cc1 was tested, and the Potency was inconclusive: 2.24 µM [inhibitor, full curve]. For COc1ccc(CNC(=O)c2ccc3c(c2)CCN3S(=O)(=O)c2ccc(Cl)cc2)cc1, the Potency was “inactive”. For CCOC(=O)c1c(C)[nH]c(C)c1S(=O)(=O)N1CCN(c2ccc(Cl)cc2)CC1, the Potency was “inactive”. For Cc1cc2n(n1)C(c1ccsc1)Nc1ccccc1-2 (stereo not drawn), the Potency was inconclusive: 25.1 µM [inhibitor, partial curve]. For COc1cc(C(CC(=O)N2CCN(c3ccccc3)CC2)c2c(OC)cc(OC)c3ccc(=O)oc23)cc(OC)c1OC (stereo not drawn), the Potency was inconclusive: 28.2 µM [inhibitor, single point]. With Cc1[nH]n(-c2ccccc2)c(=O)c1C(C[N+](=O)[O-])c1ccc(F)cc1 (stereo not drawn) the Potency was inconclusive: 20 µM [inhibitor, single point]. For CCCn1c(SCc2ccc(Cl)cc2)nc2c1c(=O)[nH]c(=O)n2C, the Potency was inconclusive: 35.5 µM [inhibitor, single point]. For CCN(CC(=O)Nc1ccccc1OC)CC(=O)Nc1ccccc1-c1ccccc1, the Potency was inconclusive: 44.7 µM [inhibitor, single point]. In the case of Cc1c(C(=O)c2ccc(Cl)c([N+](=O)[O-])c2)c2ccccn2c1CCC#N, the Potency is reported as inconclusive: 11.2 µM [inhibitor, partial curve]. With O=C(Nc1cccc(-c2cnc3ccccc3n2)c1)c1cccc(NC(=O)c2ccco2)c1 the Potency was inconclusive: 3.16 µM [inhibitor, partial curve]. CNc1nc(SCc2ccc(C)cc2)nc2c1CCCC2 was tested, and the Potency was inconclusive: 39.8 µM [inhibitor, single point]. With COc1ccc(N2CCN(S(=O)(=O)c3ccc4oc(=O)c5ncn(C)c5c4c3)CC2)cc1 the Potency was “inactive”. For CCN(c1cccc(C)c1)S(=O)(=O)c1nnc(NC(=O)C2CCCCC2)s1, the Potency was inconclusive: 20 µM [inhibitor, partial curve]. For CCc1ccc(CNC(=O)CN2C(=O)c3cccnc3Oc3ccc(Cl)cc32)cc1, the Potency was “inactive”. In the case of Cc1ccc(-c2nc(C)c(CCNC(=O)c3ccco3)s2)cc1, the Potency is reported as inconclusive: 6.31 µM [inhibitor, partial curve]. CC(C)(C)C(=O)Nc1ccc(N2CCN(c3ccc(C(F)(F)F)cn3)CC2)nc1 was tested, and the Potency was inconclusive: 1.58 µM [inhibitor, full curve]. For NC(=O)COC(=O)c1cccnc1Nc1ccccc1F, the Potency was “inactive”. With CCCCc1nc2ccn(CC(=O)N(C)C)c(=O)c2n1Cc1ccc(-c2ccccc2-c2nn[nH]n2)cc1 the Potency was “inactive”. CCOc1ccc2nc(N3CCCC(C(=O)Nc4c(C)cccc4C)C3)sc2c1 (stereo not drawn) was tested, and the Potency was inconclusive: 11.2 µM [inhibitor, partial curve, poor fit]. In the case of CCC(=O)Oc1oc(-c2ccccc2)nc1C=Nc1ccccc1OC, the Potency is reported as inconclusive: 15.8 µM [inhibitor, partial curve]. With CCS(=O)(=O)N1CCc2cc(C(=O)Nc3ccc(OC)c(Cl)c3)ccc21 the Potency was “inactive”. For CCCCN(CCCC)S(=O)(=O)c1ccc(NC(=O)c2cccs2)cc1, the Potency was “inactive”. COc1cccc(CN=CC2=C(O)CC(C)(C)CC2=O)c1OC was tested, and the Potency was “inactive”. In the case of CCCCC[C@H](O)/C=C/C=C\CCCCCCCCCC(=O)O, the Potency is reported as “inactive”. In the case of C/C(=N\Nc1nnc2c3ccccc3n(C)c2n1)c1ccc(C)o1, the Potency is reported as active: 14.1 µM. For COc1ccc(N2CC(C)Cn3c2nc2c3c(=O)n(Cc3ccccc3)c(=O)n2C)c(OC)c1 (stereo not drawn), the Potency was inconclusive: 10 µM [inhibitor, partial curve]. In the case of CCOC(=O)c1sc2ncn(CC(=O)Nc3ccc(N(C)C)cc3)c(=O)c2c1C, the Potency is reported as “inactive”. With CCOC(=O)c1c(NC(=O)c2ccc(S(=O)(=O)N3CCC(C)CC3)cc2)sc2c1CCN(C)C2 the Potency was inconclusive: 5.01 µM [inhibitor, partial curve]. NC(=O)c1c(NC(=O)c2nc(SCc3ccccc3F)ncc2Cl)sc2c1CCCC2 was tested, and the Potency was “inactive”. For Cc1ccc2[nH]c(CSc3nnc(NC(=O)COc4ccccc4)s3)cc(=O)c2c1, the Potency was “inactive”. With Cc1c(N=C(N)/N=C(\N)Nc2ccc(Br)cc2)c(=O)n(-c2ccccc2)n1C the Potency was “inactive”. In the case of CCOC(=O)c1ccc(NC(=O)CCn2c(=O)c3cccn3c3ccccc32)cc1, the Potency is reported as inconclusive: 17.8 µM [inhibitor, partial curve, poor fit]. CC(C)OC(=O)c1cc(-c2ccc(C=O)o2)ccc1Cl was tested, and the Potency was “inactive”. CC1=CCC2C(=O)N(c3ccc(C(=O)N4CCCCCC4)cc3)C(=O)C2C1 (stereo not drawn) was tested, and the Potency was “inactive”. With Cc1ccc(Sc2c(C)nn(C(=O)COc3ccccc3Br)c2C)cc1 the Potency was inconclusive: 0.141 µM [inhibitor, partial curve, poor fit]. For NC(=O)C1CCN(C(=S)c2ccc(-c3ccc(Br)cc3)o2)CC1, the Potency was inconclusive: 14.1 µM [inhibitor, partial curve]. For O=C(CCCN1C(=O)/C(=C\c2cccs2)SC1=S)Nc1ccc(C(=O)O)cc1, the Potency was inconclusive: 20 µM [inhibitor, partial curve]. With O=C1NCCN(Cc2ccc(F)cc2)C1=O the Potency was “inactive”. COc1ccccc1/C=c1\sc2nc(-c3ccco3)nn2c1=O was tested, and the Potency was inconclusive: 20 µM [inhibitor, partial curve]. For CCCn1c(SCc2nc(-c3ccc(OC)cc3OC)no2)nnc1-c1ccc(Cl)cc1, the Potency was inconclusive: 5.01 µM [inhibitor, partial curve]. For CCCCOC(=O)Nc1ccc(S(=O)(=O)Nc2nc(C)cc(C)n2)cc1, the Potency was “inactive”. CCOc1ccccc1N1CCN(Cc2cn[nH]c2-c2ccc(F)cc2)CC1 was tested, and the Potency was “inactive”. For Cc1nnc(-c2ccccc2)c(=O)n1/N=C/c1c(O)ccc2ccccc12, the Potency was inconclusive: 14.1 µM [inhibitor, partial curve].

From PubChem BioAssay AID1460 (National Center for Advancing Translational Sciences (NCATS), 2008)
Also: nearly all actives have a fitted effect of over 55% in size.
Potency is read from the fitted curve at half-maximal effect; tags tell the direction and shape of the fitted curve.
